These results are taken from ChEMBL document CHEMBL1201862, “PubChem BioAssay data set” (2004).

Molecules are shown by their SMILES.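 96-well plates; 48 h exposure; 5 concentrations. Endpoints by linear interpolation between flanking doses. Not reached: highest tested concentration assigned. At the GI50, growth is halved.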 Activity calls are given as the source filed them. Cut-off read from the data, not from the text of the source: active = GI50 up to about 1.1 µM and inactive = higher.

For this test, the system named is NCI-H322M. Put plainly: inhibition of tumour cell growth, NCI panel, 48 h.
Regarding `O=C(O)CN1C(=O)CN=C(c2ccccn2)c2cc(Cl)ccc21`, the GI50 is inactive: > 100 µM. Regarding `Cc1cccc(NC(=O)CSc2nnc(Cc3ccccc3)o2)c1`, the GI50 is inactive: > 100 µM. Then `CC1C2(C)OC(=N)C(C#N)(C(c3ccco3)O2)C1(C#N)C#N` (stereo not drawn), with inactive: > 100 µM. As to `Cc1nc(N)c(N2CCNCC2)c(O)n1`, the GI50 is inactive: > 100 µM. Take `COc1ccc(-c2nnc(CCCCCCCCc3nnc(-c4ccc(OC)cc4)n3N)n2N)cc1`: the GI50 was inactive: > 100 µM.

Turning to `[N-]=[N+]=Nc1ccc(NCCCCCC(=O)ON2C(=O)CCC2=O)c([N+](=O)[O-])c1`, the GI50 is inactive: > 100 µM. With `COc1ccc(C(=O)C(c2ccc(OC)cc2)C2C(=O)Oc3ccccc32)cc1` (stereo not drawn), the GI50 is inactive: > 10 µM. Then `COc1ccc(C2=NNC(=O)c3ccccc3N2c2nc(-c3cccs3)nc3cc(OC)c(OC)cc23)cc1`, with inactive: 8.09 µM.

For `COc1cc(Nc2cnc3ccc(C(F)(F)F)cc3n2)cc(OC)c1OC`, the GI50 was inactive: > 100 µM. Take `S=C1OC2CCCC[C@H]2O1` (stereo partly drawn): the GI50 is inactive: > 100 µM. As to `O=C(c1ccc(Cl)cc1)N(C(=S)N1CCN(c2ccccn2)CC1)c1ccccc1`, the GI50 is inactive: > 100 µM. Then `OC1(C(Sc2ccccc2)Sc2ccccc2)CCCCCC1`, with inactive: 39.1 µM. As to `c1cc2c(cc1[C@@H]1OC[C@@H]3[C@H]1CO[C@H]3c1ccc3c(c1)OCO3)OCO2`, the GI50 is inactive: 75.9 µM.

`Cc1cc(C)c2c(=O)cc(-c3ccccc3)[nH]c2c1`: the GI50 is inactive: 3.38 µM.

In the case of `CC[C@@]1(O)C[C@H](OC2CC(N(C)C)C(OC3CC(O)C(OC4CCC(=O)C(C)O4)C(C)O3)C(C)O2)c2c(cc3c(c2O)C(=O)c2c(O)ccc(O)c2C3=O)[C@H]1C(=O)OC` (stereo partly drawn), the GI50 is active: 0.00113 µM. `CCc1ccccc1N1C(=O)C(=O)C(c2nc3ccccc3s2)C(=O)C1=O`: the GI50 was inactive: > 100 µM. `CCCCCCCC/C=C\CCCCCCCC(=O)NCCN(CCN)C(=O)CCCCCCC/C=C\CCCCCCCC`: the GI50 is inactive: > 100 µM.

On to `C/C(=N/O)C1CC=C(S(=O)(=O)c2ccccc2)C1` (stereo not drawn), for which the GI50 is inactive: > 100 µM. Consider `COc1ccc(/N=c2\ssc3c(=S)ssc23)cc1`, for which the GI50 was inactive: > 100 µM. With `CC(=O)OCC1=C(C(=O)O)C(c2ccc3c(c2)OCO3)c2cc3c(cc2O1)OCO3` (stereo not drawn), the GI50 is inactive: > 100 µM. For the molecule `CC(OC(=O)C(CC(=O)OC(C)(C)C)NC(=O)OC(C)(C)C)C(=O)OCc1ccccc1` (stereo not drawn), the GI50 was inactive: > 100 µM. Regarding `CC1(C)OC(COCCOCCCCCO)C(COCCOCCCCCO)O1` (stereo not drawn), the GI50 was inactive: > 100 µM. Turning to `CCCCCCCCCCCCCCC1OC(=O)c2ccccc21` (stereo not drawn), the GI50 was inactive: > 100 µM. In the case of `Cn1c2ccc3cc2c(=S)c2cc(ccc21)OCCOCCOCCOCCOCCOCCO3`, the GI50 was inactive: > 10 µM. Then `Cn1cnc([N+](=O)[O-])c1Sc1nnc(-c2ccc(Cl)cc2)n1C`, with inactive: 37.2 µM; and `CC(=O)NC(CC(C)C)C(=O)NC(Cc1ccccc1)C(=S)N1CCCC1` (stereo not drawn), with inactive: > 100 µM; and `CCOC(=O)C1=C(C)N(Cc2ccccc2)C2(O)C(OC)CC(=O)C3C(=O)N(c4ccccc4)C(=O)C132` (stereo not drawn), with inactive: 15.3 µM. For the molecule `COC(=O)C1CCC(C)CC1=O` (stereo not drawn), the GI50 is inactive: > 100 µM.

As to `CC1(C)O[C@H]2Cn3c(c(C#N)c4ccccc43)[C@H]2O1`, the GI50 is inactive: > 100 µM. On to `N#CC12CC3=C(N=C1NC1=C(CCc4ccccc41)C2)c1ccccc1CC3` (stereo not drawn), for which the GI50 is inactive: 3.84 µM. On to `COC1C=CC23c4cc5c(cc4C(O)OC2CN(C)C3C1)OCO5` (stereo not drawn), for which the GI50 is inactive: 2.49 µM. Consider `C[C@]12CCC(=O)C=C1CC[C@@H]1C2CC[C@@]2(C)C1CC[C@@H]2OC(=O)C12OC1CCC2=O` (stereo partly drawn), for which the GI50 was inactive: 26.2 µM. With `CC(=O)OCC1OC(n2ncc(=O)[nH]c2=O)C(OC(C)=O)C1OC(C)=O` (stereo not drawn), the GI50 is inactive: 62.8 µM. With `NC(=O)N/N=C/C(=C/Nc1ccccc1)[N+](=O)[O-]`, the GI50 is inactive: > 100 µM. In the case of `CO[C@@H](c1ccccc1)[C@H](O)[C@](O)(c1ccccc1)P(=O)(OC)OC` it was inactive: > 100 µM; in that of `CCOC(=O)c1cn2c(n1)sc1cc(OC)ccc12`, inactive: 70 µM. Then `CCOC(=O)CC1(Cc2ccc(OCc3ccccc3)cc2)C(=O)OC(c2ccccc2)N1C(=O)c1ccccc1` (stereo not drawn), with inactive: > 100 µM; and `Cc1ccc(S(=O)(=O)NC(=O)Nc2cc(Cl)c(S(N)(=O)=O)cc2S(N)(=O)=O)cc1`, with inactive: > 100 µM; and `CCOC(=O)COS(=O)(=O)C(F)(F)F`, with inactive: > 100 µM.

As for `COc1ccccc1N1C(=O)C2c3[nH]c4ccccc4c3C3CCC(C(C)(C)C)CC3C2C1=O` (stereo not drawn), the GI50 was inactive: > 100 µM. Regarding `COc1cc(/C=C2\C[C@H]3[C@@H]4CC=C5C[C@@H](N6CCCC6)CC[C@]5(C)[C@H]4CC[C@]3(C)[C@H]2OC(C)=O)cc(OC)c1OC`, the GI50 is inactive: 15.4 µM. Turning to `CN(C)/C=N\c1ccn(CCO)c(=O)n1`, the GI50 is inactive: > 100 µM. Then `CC(C)(C)c1cc(/C=C2/NC(=O)NC2=O)cc(C(C)(C)C)c1O`, with inactive: 15.8 µM. Turning to `C/C=C1\CN2CCC34c5ccccc5N(C)C35OCC4(C(=O)OC)C1CC25` (stereo not drawn), the GI50 was inactive: 50 µM. With `O=S(=O)(/N=C(\NO)Nc1ccc(Cl)cc1)c1ccc(-c2ccccn2)s1`, the GI50 is inactive: > 100 µM.

For `CC(C)C12CCC3(CCC4C(C)(C(=O)O)CCCC4(C)C3C1)C(CN)C2` (stereo not drawn), the GI50 was inactive: 48.5 µM.

Consider `COc1cc2c(c(OC)c1OC)C(=O)[C@H](Br)[C@H]2NC(=O)NCCCl`, for which the GI50 was inactive: 91.6 µM. For `COc1cc(/C=C/C(=O)c2ccc(NS(=O)(=O)c3cc([N+](=O)[O-])ccc3C)cc2)cc(OC)c1OC`, the GI50 was inactive: 5.26 µM. Regarding `COC(=O)CCC1=CCC2(SC)C(=O)Nc3cccc1c32` (stereo not drawn), the GI50 is inactive: > 100 µM. Regarding `O=C1C=Cc2c(Br)sc(Br)c21`, the GI50 was inactive: 24.9 µM. Consider `CC(Oc1ccc(OCC2CCCCC2)cc1)C(=O)O` (stereo not drawn), for which the GI50 was inactive: > 100 µM. `Cc1cc(Cl)ccc1NC(=O)/C(Cl)=C(/Cl)C(=O)O`: the GI50 was active: 0.0444 µM. Take `COCCN(C(=O)c1ccccc1)C1CCC2(SCCS2)c2[nH]c3ccccc3c21` (stereo not drawn): the GI50 is inactive: 97.7 µM.

As to `C=C(CN1CC2C[C@](C(=O)OC)(c3cc4ccccc4[nH]3)C1C(OC)C2OC)S(=O)(=O)c1ccccc1` (stereo partly drawn), the GI50 is inactive: 3.8 µM.

For the molecule `CCN(CC)CCNc1ccc(/N=N/c2ccc(S(N)(=O)=O)cc2)c2ccccc12`, the GI50 is inactive: 17.9 µM. With `O=Cc1ccc(-c2cccs2)s1`, the GI50 was inactive: > 100 µM. With `Cc1[nH]n(-c2ncc(C(=O)O)c(=O)[nH]2)c(=O)c1CCO`, the GI50 was inactive: > 97.3 µM. In the case of `Nc1ncnc2c1ncn2[C@@H]1O[C@H](COP(=O)(O)O)[C@@H](O)[C@@H]1O` it was inactive: > 50 µM.
